Source: the supplement of paper PMC3334620
Over roughly 33,000 sequences, “E-score (-0.5 to 0.5)” has its median near -0.056; the highest 2% begin near 0.38. The list shows a part of the results.

Biological target: Stb4 (UniProt P50104)
Test: PBM E-score (8-mer binding enrichment) (E-score (-0.5 to 0.5)); higher = stronger / more preferred TF binding; most listed sequences are background and not binding sites
Conditions: protein concentration: 200 nM; construct: GST-DNA-binding domain
Protocol: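 Universal 'all 10-mer' protein binding microarrays (Agilent AMADID 015681) probed with GST-tagged S. cerevisiae TFs (full-length or DBD) made by in vitro transcription/translation (PURExpress), about 100-200 nM. Bound TF was detected with fluorescent anti-GST. Each ungapped 8-mer (which stands for itself and its reverse complement) is scored by the PBM enrichment score (E-score), a modified Wilcoxon-Mann-Whitney statistic from -0.5 to +0.5, computed with the Universal PBM Analysis Suite. Scale: above 0.35 generally sequence-specific binding.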

Sequence | PBM E-score
ATGGCCCC | 0.132
CGAAGTAA | 0.139
ATATCAAT | -0.0398
ACATCTGA | -0.259
ATACGGCA | 0.169
ACGTGTAT | -0.0814
AACACTAG | -0.295
AGCTGCAT | -0.251
CACCTACG | 0.0326
ATACTAGA | -0.0822
CGCGGGTA | 0.314
AACGACTG | -0.203
TTCCAAAA | -0.0492
AAATTTCC | 0.154
AGTAGGAT | -0.0655
ATGAGTTA | -0.143
CAGTGGCA | -0.144
CAGAATTA | 0.051
AGGGATGA | -0.0856
CAGCAAGG | -0.241
GAGGAAGA | -0.0876
ACAAATGT | 0.00648
GTTCCATA | -0.0371
TATATCGA | 0.0248
GAGCGGAC | 0.0302

Sequence | PBM E-score
ATTCACTA | -0.107
GTGTACCA | -0.285
CCAGGACC | -0.0453
CTCGCGTA | -0.0649
GATGTGGC | -0.0114
GACTTCTC | -0.15
CATTGTCA | -0.0657
CGAAAGCA | 0.178
AGGTAGAC | -0.154
ATAGGGTC | -0.157
CAACGTGG | -0.173
CCAACCCC | -0.0947
ACCATTAC | 0.0667
TGCACCCA | -0.014
GGACAACC | 0.0459
CGAGGCCC | 0.0735
CCCTGAGA | -0.232
CCAACGTA | -0.333
ATCCATGC | -0.0474
GGTTTAGA | 0.0626
AAGATCCG | 0.41
ACTGTGCC | -0.0486
CTAACGAC | -0.315
TAGTATAA | -0.0253
GCGTCCCA | -0.154

Sequence | PBM E-score
AAAGCCCT | -0.106
CGTAAGAC | -0.219
ATCTGGGG | -0.235
TGAAACAA | -0.124
TACGCAGA | -0.0991
AACCTCCG | 0.319
CATATCGC | -0.055
GGGGGAAC | -0.107
ACCTGCAC | -0.0938
GAAATTGC | 0.051
GGTTACAC | 0.0135
AAACCACG | 0.0125
CCCGAGAC | 0.412
ACAGAGAC | -0.0392
CGCTAAGC | -0.103
AGGACTGA | -0.0328
AGTCATTA | -0.295
ACACTCGC | 0.0245
GTAGGTCA | -0.177
CGGTGGTA | 0.0785
GCCAATCA | -0.243
GAGGCAGC | -0.166
GAGTTGGA | -0.0843
GACATCCA | -0.00911
GGATCTCA | 0.00508

Sequence | PBM E-score
AATGCGGC | 0.0593
CGTGATAC | -0.115
GTATGGGA | 0.0312
ATTTGACG | -0.0225
CCTCCCTC | 0.0321
GCAACTCC | 0.0985
ATCAGATG | -0.253
GAACCCAA | -0.0995
CTACGCCC | -0.207
CTATAAAC | 0.055
AACGGGAT | 0.246
TAGTTCGA | -0.239
AGTAGGGC | -0.0403
CCACCAGG | -0.0205
ACCCTTTG | -0.0784
CGTTTTAC | -0.0166
GCGCGAAC | 0.0411
CAAAGTCG | -0.12
AGTGGTAG | -0.182
ATTGTGCC | 0.0107
ATGGTAGG | -0.196
TCCAACGA | -0.254
ACCGAAAC | 0.372
CTAGATTA | -0.0747
CAGTACGA | -0.154

Sequence | PBM E-score
CTTAGGGC | -0.0343
ACGCCGGG | 0.169
AGATCATG | -0.308
ACCCAGCT | -0.0119
AGGTCACC | -0.167
CAATGTAG | -0.0387
GACGTAGA | -0.0865
AGCCAGAG | -0.0497
AATAATAC | 0.0362
CCTGTCTC | -0.0614
AAGTGCAC | -0.0475
GCGACTTA | 0.0574
ACACGCTA | -0.051
CGATAAAG | 0.0416
CTCCGTAC | 0.0911
AGTCATGA | -0.0251
GTGAGTAA | -0.197
GTCCTAAA | -0.132
ACCGGGGG | 0.229
ACGTCGCC | -0.082
ATTAAATC | 0.0847
GTATAATA | 0.132
ATTGATTA | -0.00822
GTGTACAC | -0.283
TACAGGCA | -0.181

Sequence | PBM E-score
CGTGTTAC | -0.0336
AGGGCATA | -0.0963
GACTAGAA | 0.0402
ATCGGCGG | 0.327
CTTGGGTA | 0.0184
ACATCAGC | -0.00689
CGGACCCC | 0.167
CTTCGAAC | -0.00115
GACTCACC | -0.0865
GCCACTCA | -0.167
TATAGGAA | -0.246
CAGTTGTC | -0.199
GTATCAGA | -0.145
GGACTGCA | -0.179
ATGTCAAT | 0.0529
GTCCCCAC | -0.164
GAGTGGTA | -0.163
AGCCTGCG | -0.0648
AATCGAAC | -0.162
AAACTAAT | 0.0849
GTTACAAC | 0.0535
ATCTTCGG | 0.423
ACGTGCCT | -0.15
ATTTGGGA | -0.202
ATCCCATC | -0.104

Sequence | PBM E-score
ATCAAAGA | -0.287
GATTCGGC | 0.393
CCCTAGAG | -0.196
GCCTATCC | 0.13
TAACGACA | -0.19
GTAGCTCA | -0.112
AGTACCCC | -0.0332
AGGATGGA | 0.0445
ATTGCAAT | 0.0191
ATCGACAA | 0.083
AGCATGTC | -0.111
GGATAACA | 0.181
ACGTTCAA | -0.106
ATATTAGG | -0.141
CGCTGTGC | 0.0871
CAACATCC | 0.213
CGACAAGC | -0.0511
CCGGGAGC | 0.278
AGGCTGAG | -0.132
CCAAAGTA | 0.0417
GAAGTTAA | 0.0385
CAAACCAC | -0.176
